According to the supplement of paper PMC10369915:
Some of the results follow. Rule as the data show it: active = 3.2 or more and inactive = the rest. Most of these values are background signal.

B1: CDH1_Y876_E880K (peptide)
chain: KLADMYGGGKD
B2: CDC73_Y290_YF (peptide)
chain: PIPAAYNRFDQ
B3: CDAN1_Y713_R714W_YF (peptide)
chain: PLLEFYWDIFT
B4: CDC73_Y293_R292K (peptide)
chain: AAYNKYDQERF
B5: CDC73_Y290_R292K_YF (peptide)
chain: PIPAAYNKFDQ
B6: CDH1_Y68 (peptide)
chain: RQRTAYFSLDT
B7: CD200R1L_Y138_H135R (peptide)
chain: NFRRGYHLQVL
B8: CD59_Y86_C89Y_YF (peptide)
chain: ENELTYFCFKK
B9: CDC5L_Y459_Y459C_YF (peptide)
chain: DGMADCSDPSF
B10: CDH17_Y489_S484I (peptide)
chain: ISKILYHIIKG
B11: CD59_Y87_C89Y_YF (peptide)
chain: NELTFYCFKKD
B12: CDC42_Y64 (peptide)
chain: AGQEDYDRLRP
B13: CDC5L_Y464_YF (peptide)
chain: FSDPSYVKQME
B14: CDC73_Y290 (peptide)
chain: PIPAAYNRYDQ
B15: CD207_Y217_P213S (peptide)
chain: ISKTWYSAEQF
B16: CDAN1_Y713_R714W (peptide)
chain: PLLEYYWDIFT
B17: CDCP1_Y707 (peptide)
chain: PAVGIYNDNIN
B18: CDAN1_Y713_YF (peptide)
chain: PLLEFYRDIFT
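Also: displayed peptides selected on beads carrying the immobilized SH2 domain, with library peptides lacking any tyrosine serving as negative controls.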

What follows are binders tested against SHP2 C-SH2 domain E139D (assay: enrichment score (SH2-bound / input frequency) (ratio); bacterial display of known human phosphotyrosine sites (pTyr-Var adds point mutants) read by sequencing; higher = stronger binding; tyrosines were phosphorylated by kinases first). Conditions: peptide library: pTyr-Var.
In the case of B1, the enrichment score is reported as inactive: 0.72. With B2 the enrichment score was inactive: 0.525. B3 was tested, and the enrichment score was inactive: 0.953. With B4 the enrichment score was inactive: 0.866. B5 was tested, and the enrichment score was inactive: 0.705. With B6 the enrichment score was inactive: 1. With B7 the enrichment score was inactive: 0.844. For B8, the enrichment score was inactive: 0.789. For B9, the enrichment score was inactive: 0.932. For B10, the enrichment score was active: 5.71. In the case of B11, the enrichment score is reported as inactive: 0.465. B12 was tested, and the enrichment score was inactive: 0.555. B13 was tested, and the enrichment score was inactive: 0.519. B14 was tested, and the enrichment score was inactive: 0.753. In the case of B15, the enrichment score is reported as inactive: 1.08. For B16, the enrichment score was inactive: 2.81. For B17, the enrichment score was inactive: 0.638. With B18 the enrichment score was inactive: 1.63.

These binders were tested against SHP2 C-SH2 domain wild-type in the same assay as above. Conditions: peptide library: pTyr-Var.
B1 was tested, and the enrichment score was inactive: 0.609. With B2 the enrichment score was inactive: 0.605. For B3, the enrichment score was inactive: 1.52. B4 was tested, and the enrichment score was inactive: 0.787. For B5, the enrichment score was inactive: 0.753. B6 was tested, and the enrichment score was inactive: 2.18. B7 was tested, and the enrichment score was inactive: 0.561. With B8 the enrichment score was inactive: 1.09. In the case of B9, the enrichment score is reported as inactive: 0.593. B10 was tested, and the enrichment score was active: 4.45. With B11 the enrichment score was inactive: 0.474. With B12 the enrichment score was inactive: 0.494. B13 was tested, and the enrichment score was inactive: 0.632. For B14, the enrichment score was inactive: 0.683. B15 was tested, and the enrichment score was inactive: 0.972. For B16, the enrichment score was active: 3.48. With B17 the enrichment score was inactive: 0.502. For B18, the enrichment score was inactive: 1.28.

Each binder was assayed against SHP2 N-SH2 domain L43F in the same assay as above. Conditions: peptide library: pTyr-Var.
In the case of B1, the enrichment score is reported as inactive: 0.74. B2 was tested, and the enrichment score was inactive: 0.79. B3 was tested, and the enrichment score was inactive: 1.49. B4 was tested, and the enrichment score was inactive: 0.727. In the case of B5, the enrichment score is reported as inactive: 0.826. With B6 the enrichment score was inactive: 0.736. In the case of B7, the enrichment score is reported as inactive: 0.711. In the case of B8, the enrichment score is reported as inactive: 0.841. With B9 the enrichment score was inactive: 0.507. For B10, the enrichment score was active: 5.12. For B11, the enrichment score was inactive: 0.476. B12 was tested, and the enrichment score was inactive: 0.57. In the case of B13, the enrichment score is reported as inactive: 0.517. In the case of B14, the enrichment score is reported as inactive: 0.778. For B15, the enrichment score was inactive: 0.835. For B16, the enrichment score was active: 3.68. For B17, the enrichment score was inactive: 0.862. In the case of B18, the enrichment score is reported as inactive: 1.78.

What follows are binders tested against SHP2 N-SH2 domain T42A in the same assay as above. Conditions: peptide library: pTyr-Var.
For B1, the enrichment score was inactive: 0.69. B2 was tested, and the enrichment score was inactive: 0.523. For B3, the enrichment score was inactive: 0.876. B4 was tested, and the enrichment score was inactive: 0.662. With B5 the enrichment score was inactive: 0.713. For B6, the enrichment score was inactive: 0.981. With B7 the enrichment score was inactive: 0.646. In the case of B8, the enrichment score is reported as inactive: 0.866. In the case of B9, the enrichment score is reported as inactive: 0.526. For B10, the enrichment score was active: 3.98. With B11 the enrichment score was inactive: 0.569. For B12, the enrichment score was inactive: 0.46. In the case of B13, the enrichment score is reported as inactive: 0.585. For B14, the enrichment score was inactive: 0.714. For B15, the enrichment score was inactive: 0.839. With B16 the enrichment score was inactive: 2.86. With B17 the enrichment score was inactive: 0.801. For B18, the enrichment score was inactive: 1.76.

The binders below were run against SHP2 N-SH2 domain T52S in the same assay as above. Conditions: peptide library: pTyr-Var.
With B1 the enrichment score was inactive: 0.901. For B2, the enrichment score was inactive: 0.645. For B3, the enrichment score was inactive: 1.03. With B4 the enrichment score was inactive: 0.823. In the case of B5, the enrichment score is reported as inactive: 0.826. B6 was tested, and the enrichment score was inactive: 0.672. B7 was tested, and the enrichment score was inactive: 0.923. B8 was tested, and the enrichment score was inactive: 0.735. In the case of B9, the enrichment score is reported as inactive: 0.601. B10 was tested, and the enrichment score was active: 4.56. B11 was tested, and the enrichment score was inactive: 0.511. For B12, the enrichment score was inactive: 0.532. B13 was tested, and the enrichment score was inactive: 0.491. For B14, the enrichment score was inactive: 0.929. With B15 the enrichment score was inactive: 1.05. B16 was tested, and the enrichment score was active: 3.2. B17 was tested, and the enrichment score was inactive: 0.662. For B18, the enrichment score was inactive: 1.5.

These binders were tested against SHP2 N-SH2 domain wild-type in the same assay as above. Conditions: peptide library: pTyr-Var.
B1 was tested, and the enrichment score was inactive: 0.687. For B2, the enrichment score was inactive: 0.957. B3 was tested, and the enrichment score was inactive: 1.66. With B4 the enrichment score was inactive: 0.712. In the case of B5, the enrichment score is reported as inactive: 0.772. B6 was tested, and the enrichment score was inactive: 0.731. For B7, the enrichment score was inactive: 0.843. B8 was tested, and the enrichment score was inactive: 1.11. B9 was tested, and the enrichment score was inactive: 0.592. For B10, the enrichment score was active: 4.43. In the case of B11, the enrichment score is reported as inactive: 0.612. In the case of B12, the enrichment score is reported as inactive: 0.687. For B13, the enrichment score was inactive: 0.572. For B14, the enrichment score was inactive: 0.834. In the case of B15, the enrichment score is reported as inactive: 0.782. With B16 the enrichment score was inactive: 2.64. In the case of B17, the enrichment score is reported as inactive: 0.62. In the case of B18, the enrichment score is reported as inactive: 1.97.
